In PubChem BioAssay AID485294 (National Center for Advancing Translational Sciences (NCATS), 2010):
Out of some 370,000 compounds screened, about 150 (0.041%) were called active. This list was built around the results that the source calls inconclusive (neither active nor inactive); the mix of calls is not that of the screen. Calls follow the shape of the dose curve; as a rule, active = well fitted inhibition curve with a large enough effect; inconclusive = small, poorly fitted or top-dose-only effect; inactive = flat fitted curve, though single readings scatter. Potencies of inconclusive entries are left out as doubtful fits.

Target: Beta-lactamase (Escherichia coli (strain K12)) (UniProt P00811)
Chain of UniProt P00811 (P00811 whole entry, looked up): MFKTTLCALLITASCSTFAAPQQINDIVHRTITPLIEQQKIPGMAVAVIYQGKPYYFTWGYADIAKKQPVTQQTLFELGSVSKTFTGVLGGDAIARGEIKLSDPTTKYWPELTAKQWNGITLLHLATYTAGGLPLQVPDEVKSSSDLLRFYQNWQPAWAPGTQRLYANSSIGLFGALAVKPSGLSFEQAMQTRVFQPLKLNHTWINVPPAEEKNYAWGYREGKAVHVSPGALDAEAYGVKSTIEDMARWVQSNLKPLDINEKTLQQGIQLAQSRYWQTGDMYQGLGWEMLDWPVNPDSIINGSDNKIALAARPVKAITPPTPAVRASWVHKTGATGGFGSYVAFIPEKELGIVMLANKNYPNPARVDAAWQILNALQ
Assay: qHTS Inhibitors of AmpC Beta-Lactamase (assay with detergent); also: nearly all actives have a fitted effect of over 25% in size;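 as to activity change, negative = inhibition: 0% = no-compound wells and -100% = no-enzyme wells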
Conditions: AmpC hydrolysis of nitrocefin, absorbance 480 nm, 0.01% Triton; activity change, negative = inhibition: at 114 µM (top of the series)
Procedure, shortened: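 AmpC (5.3 nM in the dispensed reagent) in 20 mM phosphate pH 7.0 with 0.01% (detergent screen) or 0.0001% Triton X-100 was preincubated with compounds for 15 min at room temperature. Nitrocefin was then added from an 800 uM solution, and hydrolysis was followed at 480 nm.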
Potency is read from the fitted curve at half-maximal effect; tags tell the direction and shape of the fitted curve.

SMILES | Potency | activity change, negative = inhibition
Cc1cccc(C(C)(C)C)c1OCCCCN1CCCC1 | inconclusive [inhibitor, full curve, poor fit] | 
CN(CC(=O)Nc1c(Cl)cccc1Cl)C(=O)c1cc2ccccc2cc1O | inconclusive [inhibitor, full curve, poor fit] | 
S=C(NCc1ccc(Cl)cc1)Nc1ccccc1 | inconclusive [inhibitor, full curve, poor fit] | 
Cc1cccc(C)c1NC(=O)CN(C)CC(=O)Nc1ccc(C#N)c(Cl)c1 | inconclusive [inhibitor, single point] | 
O=C(Nc1cccnc1)c1cc2c(ccc3ccccc32)o1 | inconclusive [inhibitor, full curve, poor fit] | 
Cc1cccc(NC(=S)N(CCCN2CCOCC2)Cc2ccccn2)c1 |  | inactive: -3.93%
Cc1ccc2oc(-c3ccc(NC(=O)c4oc5ccc(Cl)cc5c4C)cc3)nc2c1 |  | inactive: 13.8%
O=C(Nc1ccc2c(c1)OCO2)c1ccc(Cl)c(S(=O)(=O)N2CCOCC2)c1 |  | inactive: 4.88%
Cc1ccc2nc(C(O)C(O)c3nc4ccc(C)cc4[nH]3)[nH]c2c1 (configuration not stated) |  | inactive: -6.29%
O=C(N1CCCC1)N1CCN(c2ncnc3c(-c4ccc(Cl)cc4)nsc23)CC1 | inconclusive [inhibitor, full curve, poor fit] | 
O=C(NCc1ccc(OC(F)(F)F)cc1)C1CC(c2c(Cl)cccc2Cl)=NO1 (configuration not stated) |  | inactive: 2.51%
Cc1sc2ncnc(NCCCN3CCCC3=O)c2c1C |  | inactive: -6.73%
COc1ccccc1N(C(=O)c1cncc(Br)c1)c1nc(-c2ccc(C)cc2)cs1 |  | inactive: -8.6%
S=c1nccc(-c2cccs2)[nH]1 | inconclusive [inhibitor, full curve] | 
COc1ccc(Nc2ncnc3nc[nH]c23)cc1OC | inconclusive [inhibitor, full curve, poor fit] | 
CC1(C)CSC(Nc2ccc(F)c(Cl)c2)=N1 | inconclusive [inhibitor, full curve, poor fit] | 
CCOC(=O)c1nn(-c2ccccc2)c(C(=O)OCC)c1N | inconclusive [inhibitor, single point] | 
O=C(CN1CCN(Cc2ccccc2)CC1)Nc1ccccc1 | inconclusive [inhibitor, full curve, poor fit] | 
CCc1cccc2c(N=O)c(O)[nH]c12 | inconclusive [inhibitor, full curve, poor fit] | 
Cc1ccc(NC(=O)N2CCCCCC2)c(C)c1 | inconclusive [inhibitor, partial curve, poor fit] | 
CN(CC(=O)Nc1ccc(Cl)cc1)C(=O)C1CCCC1 | inconclusive [inhibitor, partial curve] | 
COc1ccc(Nc2cc(C)nc(N3CCN(C(=O)c4ccc5c(c4)OCO5)CC3)n2)cc1 | inconclusive [inhibitor, full curve, poor fit] | 
O=C(NNC(=O)c1ccccc1OCc1ccccc1Cl)c1csc(N2CCOCC2)n1 | inconclusive [inhibitor, single point] | 
CCOc1ccc(S(=O)(=O)N2CCCCC2)cc1NC(=O)C1COc2ccccc2O1 (configuration not stated) |  | inactive: 7.71%

SMILES | Potency | activity change, negative = inhibition
COc1ccc(C(=O)N(C)CCCC2CCCC2)cc1OC1CCN(C(C)C)CC1 |  | inactive: 1.62%
CCOc1ccccc1-c1nnc(SCC(=O)NC2CC3CCC2C3)n1CC (configuration not stated) | inconclusive [inhibitor, full curve] | 
Cc1cc(Nc2cccc(Cl)c2)nc2ccc(NC(=O)COc3ccc(Cl)cc3)cc12 |  | inactive: 18.6%
O=C(O)c1ccc(N2CC3CC(C2)c2cccc(=O)n2C3)c(NS(=O)(=O)c2cccc(C(F)(F)F)c2)c1 (configuration not stated) | inconclusive [inhibitor, full curve, poor fit] | 
CCOc1ccc(/C=C/C(=O)N(C)CC(=O)Nc2cccc(F)c2)cc1OCC | inconclusive [inhibitor, partial curve, poor fit] | 
CCOc1ccccc1N1C(=O)CC(N(O)c2ccccc2)C1=O (configuration not stated) | inconclusive [inhibitor, full curve] | 
O=S(=O)(Nc1ccccc1O)c1cccc2cccnc12 |  | inactive: -2.61%
O=C(NNC(=O)c1ccc2ccccc2c1O)Nc1ccc(F)cc1 |  | inactive: 4.76%
CCOC(=O)c1cnc(SCC(=O)Nc2cc(OC)cc(OC)c2)nc1N | inconclusive [inhibitor, full curve, poor fit] | 
COCCn1c(C(F)(F)F)ccc(NC(=O)c2ccccc2)c1=O |  | inactive: 3.38%
CCOc1cccc(OCCOCCNC(C)(C)C)c1 | inconclusive [inhibitor, single point] | 
O=C(CSc1nnc(Cn2nnc3ccccc32)o1)Nc1ccc(Cl)cc1 | inconclusive [inhibitor, single point] | 
Cc1sc(N)c(C#N)c1C | inconclusive [inhibitor, full curve, poor fit] | 
CC1(C)NC(=O)N(CCOCCOc2cccc(Oc3ccccc3)c2)C1=O | inconclusive [inhibitor, single point] | 
CCCOc1ccccc1-c1nc(SCCC(=O)O)n[nH]1 | inconclusive [inhibitor, full curve, poor fit] | 
CCCN(CC(=O)Nc1ccccc1OC)C(=O)c1ccc2[nH]c3c(c2c1)CC(C)CC3 (configuration not stated) |  | inactive: -5.37%
Nc1nc(N)nc(-c2cc(F)ccc2O)n1 |  | inactive: -6.87%
Cc1oc2ccc(O)c(CN3CCCCCC3)c2c1C(=O)Nc1cccc(C(F)(F)F)c1 |  | inactive: -8.1%
O=C(CCCc1ccccc1)Nc1cccc2c1CCCC2 | inconclusive [inhibitor, single point] | 
COC(=O)c1c(NC(=O)CCCC(=O)O)sc2c1CCC2 | inconclusive [inhibitor, single point] | 
CCC(O)c1nc2ccccc2n1Cc1cc(C)ccc1C (configuration not stated) |  | inactive: 20.4%
COc1ccc(OC)c2nc(-c3cccnc3)ccc12 | inconclusive [inhibitor, full curve, poor fit] | 
COc1cc(NC(=O)c2ccccc2F)c(OC)cc1NC(=O)CN1CCCCC1 | inconclusive [inhibitor, single point] | 
